# Measurements as given in PMC6919601, “Identification of Plasmodium dipeptidyl aminopeptidase allosteric inhibitors by high throughput screening” (PLoS ONE, 2019).
# Out of some 110,000 compounds screened, about 230 (0.21%) showed an effect of 50% or more. Some of the results follow.
# Target: DPAP1 (Plasmodium falciparum, UniProt Q8IIJ9)
# Experiment: primary screen, percent inhibition; read by cleavage of a fluorogenic dipeptide substrate; higher = more effect of the substance
# Set-up: species or system P. falciparum D10 trophozoite lysates; single well
# 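Also: 30 min substrate incubation versus DMSO and 10 µM JCP410 controls.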
# Sequence of DPAP1 (Q8IIJ9 whole entry, looked up): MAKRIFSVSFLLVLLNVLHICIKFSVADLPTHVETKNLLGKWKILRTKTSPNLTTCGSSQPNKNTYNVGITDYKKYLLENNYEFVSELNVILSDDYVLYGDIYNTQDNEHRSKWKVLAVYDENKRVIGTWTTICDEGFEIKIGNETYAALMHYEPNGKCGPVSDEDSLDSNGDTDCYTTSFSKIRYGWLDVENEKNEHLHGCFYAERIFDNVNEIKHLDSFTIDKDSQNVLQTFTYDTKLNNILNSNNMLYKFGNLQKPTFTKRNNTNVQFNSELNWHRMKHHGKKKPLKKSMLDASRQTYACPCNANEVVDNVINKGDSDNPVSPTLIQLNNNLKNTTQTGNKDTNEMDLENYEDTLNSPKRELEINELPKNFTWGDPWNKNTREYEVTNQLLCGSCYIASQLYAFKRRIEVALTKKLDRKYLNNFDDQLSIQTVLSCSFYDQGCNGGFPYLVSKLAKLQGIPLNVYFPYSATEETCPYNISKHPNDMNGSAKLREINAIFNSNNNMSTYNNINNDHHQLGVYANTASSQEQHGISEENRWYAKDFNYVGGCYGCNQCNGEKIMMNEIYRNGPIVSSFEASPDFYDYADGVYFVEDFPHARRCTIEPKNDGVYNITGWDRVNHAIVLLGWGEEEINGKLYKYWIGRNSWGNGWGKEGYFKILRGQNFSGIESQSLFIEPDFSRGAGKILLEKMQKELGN
row,SMILES,% Inhibition @ 10 uM
1,Cc1cccn2c(=O)c3cc(S(=O)(=O)c4ccc(Cl)cc4)c(=N)n(CC4CCCO4)c3nc12 (stereo not drawn),-3.33%
2,N#Cc1c(NC(=O)c2c(F)cccc2F)sc2c1CCCC2,1.01%
3,Cc1cc(Cl)ccc1N(C)C(=O)c1cnn(-c2ccccc2)c1C,1.59%
4,Cc1ccc(CCNC(=O)CCCNS(=O)(=O)c2cccc3nsnc23)cc1,-1.43%
5,COc1ccc(/C=C2\SC(=O)N(CC(=O)Nc3ccccc3F)C2=O)cc1,-1.28%
6,O=C(NCCOc1ccccc1Cl)C(=O)NCCOc1ccccc1Cl,3.39%
7,CC(=O)Nc1sc2c(c1C#N)CCC2,6.47%
8,Cc1cc(C)nc(Nc2n[nH]c(C)n2)n1,-4.78%
9,CCN(CC)CCCNC(=O)CNC(=O)Cn1cnc2sc(C)c(C)c2c1=O,2.8%
10,CCOC(=O)c1sc2nc(C)cc(C)c2c1N(C(C)=O)C(C)=O,-3.06%
11,C=CCc1cc(/C=C2/NC(=O)N(Cc3ccc(F)cc3)C2=O)cc(OCC)c1O,-0.386%
12,CCOc1ccc(N2C(=O)NC(=O)/C(=C/c3ccc(C)cc3)C2=O)cc1,0.299%
13,CSc1nc2sc3c(c2c2nnnn12)CCN(C)C3,-0.267%
14,CCN(CC)CCCNC(=O)C1CCN(c2nn3cc(-c4ccc(C)cc4)nc3s2)CC1,4.19%
15,COc1ccccc1C(=O)Nc1ccc(-c2nc3cc(Cl)ccc3o2)cc1,0.467%
16,CC1=C(C(=O)Nc2ccccc2C)C(c2ccc(Br)cc2)NC(=O)N1 (stereo not drawn),-2.84%
17,CS(=O)(=O)N1CCN(CCN2C(=O)c3cccc4cccc(c34)C2=O)CC1,6.48%
18,Cc1ccc2cc3c(NCc4ccc(F)cc4Cl)[nH]nc3nc2c1,4.33%
19,NC(=O)c1conc1-c1ccc(Cl)cc1Cl,-0.711%
20,COc1ccc(/C=c2\s/c(=C/C(=O)c3ccc(C)cc3)[nH]c2=O)c(OC)c1,0.189%
21,O[C@H]1CC[C@H](NC2CCCCCC2)CC1,-0.233%
22,CC(CCCC(C)(C)O)NC(C)Cc1ccc(F)cc1 (stereo not drawn),4.68%
23,CC(C)C[C@H](NC(=O)c1ccc(-c2ccc(NS(C)(=O)=O)cc2)cc1)C(=O)NCC#N,-0.207%
24,O=C(C(Cc1ccccc1)n1cccc1)N1CCN(c2ccccn2)CC1 (stereo not drawn),0.981%
25,CCO/C(O)=C1\C(C)=NC2=C(C(=O)CC(C)(C)C2)C1c1cc(Br)c(C)s1 (stereo not drawn),-8.7%
26,Cc1nc2c(-c3ccc(Cl)cc3)cnn2c(O)c1Cc1ccccc1,3.16%
27,CCCCSc1nnc2n(/N=C/c3ccc(O)c(OC)c3)cnn12,1.76%
